The values that follow come from PubChem BioAssay (Tox21).

“And” between values parts separate entries of the source, which are not always exact repeats. Equal entries are not always repeated. The entries are a selection whose mix differs from that of the whole data set. Records with an inconclusive call do not appear. More than one record can exist for a structure, and the calls need not agree. The source made the active and inactive calls. Unless noted, calls follow the shape of the dose curve; as a rule, active = well fitted curve in the direction sought with a large enough effect in the repeat runs; inconclusive = weak or mixed curves; inactive = no such curve, though single readings can be large; an effect the other way counts as inactive or inconclusive.
Potency is read from the fitted curve at half-maximal effect.

The first test is described as follows: qHTS assay to identify small molecule antagonists of the androgen receptor (AR) signaling pathway - cell viability counter screen (AID 743033; also: nearly all actives have a fitted effect of over 45% in size). The following applies: AR-bla HEK293 viability, CellTiter-Glo luminescence, 16 h. A general note: qHTS replaces the single test concentration by a dilution series.
For the compound `CC(=O)[C@H]1CC[C@H]2[C@@H]3CCC4=CC(=O)CC[C@]4(C)[C@H]3CC[C@]12C`, the Potency is active: 27.4 µM.

Take `S=C(NC1CCCCC1)NC1CCCCC1`: the Potency is active: 19.5 µM.

For the compound `Cc1cc(Cc2cc(C)cc(C(C)(C)C)c2O)c(O)c(C(C)(C)C)c1`, the Potency was active: 19.5 µM.

Turning to `COc1ccc2cc3[n+](cc2c1OC)CCc1cc2c(cc1-3)OCO2`, the Potency was active: 11 µM.

In the case of `S=c1[nH]c2ccccc2s1`, the Potency was active: 49 µM.

On to `c1ccc2occc2c1`, for which the Potency is active: 54.9 µM.

For `NC(=O)N/N=C/c1ccc([N+](=O)[O-])o1`, the Potency was active: 54.9 µM.

Another test in a line: qHTS assay to identify small molecule antagonists of the androgen receptor (AR) signaling pathway using the MDA cell line - cell viability counter screen (AID 743041; also: nearly all actives have a fitted effect of over 45% in size; as to viability change, negative = cytotoxic: % is scaled to controls: 0 for no effect and ±100 for the full control effect). The following applies: MDA-kb2 viability, CellTiter-Fluor, 16 h, cells co-treated with R1881 androgen agonist; series mostly up to 70.3 µM; viability change, negative = cytotoxic: at the top concentration. Put shortly: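 Cytotoxicity counter screen: MDA-kb2 AR-luc cells, compound + R1881, 16 h, 37C, 0% CO2; CellTiter-Fluor added at 15.5 h, fluorescence read after 30 min.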
With `CC(C)CCCCCCc1ccc(O)cc1`, the “viability change, negative = cytotoxic” value was inactive: -17.3% [at 95 µM].

On to `Oc1c(Cl)cc(Cl)cc1Sc1cc(Cl)cc(Cl)c1O`, for which the Potency was active: 43.4 µM and active: 68.6 µM.

For the compound `CC(CN1c2ccccc2Sc2ccccc21)N(C)C` (stereo not given), the “viability change, negative = cytotoxic” value is inactive: -6.23%.

Take `CCCCCCCC[Si](OCC)(OCC)OCC`: the “viability change, negative = cytotoxic” value was inactive: 0.733%.

For the compound `NC(=O)N/N=C/c1ccc([N+](=O)[O-])o1`, the Potency is active: 54.5 µM.

Another test is described as follows: qHTS assay to identify small molecule antagonists of the estrogen related receptor signaling pathway with the pleiotropic PPARgamma coactivator (PGC) from Tox21 10K library - cell viability counter screen (AID 1224840; active = well fitted cell-killing curve with a large enough effect in the repeat runs, not every such curve was filed as active; also: nearly all actives have a fitted effect of over 40% in size; as to viability change, negative = cytotoxic: % is scaled to controls: 0 for no effect and ±100 for the full control effect). The following applies: PGC/ERR reporter cells viability, CellTiter-Fluor, 17.5 h; series mostly up to 92.4 µM; viability change, negative = cytotoxic: at the top concentration. The source says: National Center for Advancing Translational Sciences [NCATS]
NIH Chemical Genomics Center [NCGC]
U.S. Environmental Protection Agency [EPA]
National Institutes of Environmental Health Sciences [NIEHS]
National Toxicology Program [NTP]
U.S. Food and Drug Administration [FDA]
Estrogen related receptors (ERRs), the first orphan nuclear receptors discovered, play an important role in the control of cellular energy metabolism. ERRs are required for high-energy production in response to the environmental challenges. The pleiotropic PPARgamma coactivator (PGC) is a major partner of ERR and a key regulator in energy homeostasis. Together they have been implicated in the etiology of metabolic disorders such as Type 2 diabetes and metabolic syndrome. ERR-alpha was also identified as an adverse marker for breast cancer progression; ERR-alpha-positive tumors have a poor prognosis. To screen and to identify environmental compounds that perturb the ERR and PGC/ERR signaling pathways could provide valuable information for potential therapeutic or preventive measures in the treatment of metabolic disease. To differentiate true PGC/ERR antagonists or agonist from cytotoxic substances, the assay is multiplexed with cell viability assay.
Tox21 Assay Protocol Summary:
The PGC/ERR cells were dispensed at 2,000 cells/5 ul/well in 1536-well white plates using a Multidrop dispenser. After the assay plates were incubated at a 37 C/5% CO2 incubator for 6 hours, 23 nL of compounds dissolved in DMSO, positive and negative controls or DMSO only was transferred to the assay plate by a pin tool. The plates were incubated at 37 C for 17.5 hours. 1 ul/well of CellTiter-Fluor reagent was added into the assay plates using a Flying Reagent Dispenser. After 30-minute incubation at 37 C/5% CO2, the fluorescence intensity in the plates was measured using a ViewLux plate reader.
Consider `Nc1cccc2c(N)cccc12`, for which the “viability change, negative = cytotoxic” value is inactive: -7.39%.

Take `CC(C)CCCCCCc1ccc(O)cc1`: the Potency is active: 2.78 µM.

Take `CN(C)c1ccc(N=NS(=O)(=O)O)cc1`: the “viability change, negative = cytotoxic” value was inactive: -18.6%.
